The whole screen tested about 350,000 compounds, of which about 9,900 (2.8%) were called active. Inconclusive results, whose numbers are uncertain, are shown with a selection of clear calls. The call rests on the fitted dose curve; in most records, active means well fitted activation curve with a large enough effect; inconclusive means small, poorly fitted or top-dose-only effect; inactive means no such curve, though single readings can be large or run the other way. Potencies of inconclusive entries are left out as doubtful fits.
experiment: A quantitative high throughput screen for small molecules that induce DNA re-replication in MCF 10a normal breast cells.; further: nearly all actives have a fitted effect of over 50% in size; conditions: MCF 10A DNA re-replication, Hoechst nuclear intensity, 48 h; series mostly up to 46.1 µM
Potency means the concentration at half of the fitted maximal effect; tags describe the fitted curve by direction and shape.

SMILES | Potency
Cn1c(=O)n(CCc2ccccc2)c(=O)c2c1nc1n2CCCN1Cc1ccccc1 | inconclusive [activator, single point]
Cc1ccccc1-c1cc(C(=O)NCc2ccc3c(c2)OCO3)n(CC2CC(c3cccnc3)=NO2)n1 (stereo not given) | inconclusive [activator, single point]
O=C(Nc1ccc2c(c1)CCC2)c1cccc(S(=O)(=O)Nc2ccccc2Cl)c1 | inconclusive [activator, single point]
COc1cccc(C(=O)OCC(=O)N2CCc3ccccc32)c1OC | inconclusive [activator, single point]
CC(=O)Nc1ccc(NC(=O)c2ccccc2N(Cc2ccccc2)S(C)(=O)=O)cc1 | inconclusive [activator, single point]
COc1ccc2oc(C(=O)NCc3ccccc3CN3CCCC3)c(C)c2c1 | inactive
Cc1cc(C(=O)COc2ccccc2[N+](=O)[O-])c(C)n1-c1cccc(S(=O)(=O)N2CCOCC2)c1 | inconclusive [activator, full curve]
Fc1cccc(Cl)c1Cn1nnc2c(N3CCC4(CC3)OCCO4)ncnc21 | inconclusive [activator, single point]
CC(=O)Nc1cccc(NC(=O)CSc2ncc(C(=O)Nc3ccc(F)cc3)c(=O)n2C)c1 | inconclusive [activator, single point]
CCCCn1c(NC(=O)c2ccccc2)c(C#N)c2nc3ccccc3nc21 | inactive
COc1ccc(OC)c(C2C(C#N)=C(N)Oc3c2c(C)nn3-c2cccc(Cl)c2)c1 (stereo not given) | inconclusive [activator, single point]
CC(C)(c1ccccc1)c1ccc(OCc2ccc(C(=O)O)o2)cc1 | inconclusive [activator, partial curve]
CO/N=C/c1ccc(OC)c(Oc2nc(OC)cc(OC)n2)c1 | active: 16.4 µM
COCCCNC(=O)c1ccc(Cn2c(=O)c3ccccc3n(Cc3ccccc3C#N)c2=O)cc1 | active: 23.1 µM
CCCCc1cc(-c2n[nH]c(=S)o2)c2ccccc2n1 | inconclusive [activator, single point]
N#C/C(=C/c1ccc(-c2ccc([N+](=O)[O-])cc2)o1)C(=O)Nc1nc(-c2cccs2)cs1 | inconclusive [activator, full curve, poor fit]
O=C(Nc1sc2c(c1C(=O)O)CCCCC2)c1ccco1 | inconclusive [activator, partial curve, poor fit]
Cc1cccc(-n2c(=O)c(C#N)cc3c(=O)n4ccccc4nc32)c1 | inconclusive [activator, single point]
COc1ccc(-n2c(C)c(C)c3c(NCCCN(C)C)ncnc32)cc1 | inconclusive [activator, single point]
O=C(CCn1cncn1)N1CCCC(N2CCN(c3ccc(F)cc3)CC2)C1 (stereo not given) | inactive
Cc1ccc(N(CC(=O)N2CCc3ccccc32)S(=O)(=O)c2cccs2)cc1 | inactive
CC(C)Cn1c(=O)[nH]c(=O)c2c(C(F)(F)F)cc(-c3ccccc3)nc21 | inconclusive [activator, partial curve, poor fit]

SMILES | Potency
Cc1ccc(OCc2cc(C(=O)NCc3cc(F)ccc3C)no2)cn1 | inconclusive [activator, single point]
Cc1ccc(C(=O)N(CN2CCCC2=O)c2ccc(F)cc2)cc1C | inactive
CCC(=NCc1ccc(Cl)c(Cl)c1)c1nc(-c2ccco2)oc1O | inconclusive [activator, single point]
O=C(N/N=C/c1cc(Cl)cc([N+](=O)[O-])c1O)c1ccc2c(c1)OCO2 | inconclusive [activator, single point]
O=C(CN(C(=O)CSc1nc2ccccc2o1)c1cccc(F)c1)NC1CCCCC1 | inactive
COCCNC(=O)Cn1cc(/C=N/NC(=O)c2ccc(Oc3ccc(O)cc3)cc2)c2ccccc21 | inactive
CCN1CCN(c2cc(-c3ccccc3)nc3cc(-c4cccc(F)c4)nn23)CC1 | active: 10.3 µM
COc1cc(CNC(=O)CCCC/C=C/C(C)C)ccc1O | inactive
Cc1cc(-c2ccccc2)nc(N/N=C/c2ccc(O)cc2)n1 | inconclusive [activator, single point]
Cc1cc(C)nc(NNC(=O)c2ccccc2O)n1 | inactive
FC(F)(F)c1ccc(/C=N/NC(=S)NC2CCCCC2)cc1 | active: 18.4 µM
COC(=O)c1sc2nc(C)cc(-c3ccccc3)c2c1N | inconclusive [activator, full curve, poor fit]
CC(C)n1c(SCC(=O)NC2CC2)nnc1C1CC1 | inactive
CN(Cc1ccccc1)S(=O)(=O)c1ccc(Cl)c(C(=O)N2CCC2)c1 | inactive
CCNC(=S)N1CCN(c2nc(-c3cccc(OC)c3)cs2)CC1 | inconclusive [activator, partial curve, poor fit]
COc1ccc(CNC(=O)COC(=O)c2cccnc2Nc2cccc(C(F)(F)F)c2)cc1 | inconclusive [activator, partial curve]
CC1CCN(C(=O)c2cc(S(=O)(=O)N3CCCCC3)c[nH]2)CC1 | inconclusive [activator, single point]
COc1ccc2c(-c3ccc(S(N)(=O)=O)cc3)c(-c3ccc(S(C)(=O)=O)cc3)sc2c1 | inconclusive [activator, partial curve, poor fit]
O=C(O)c1ccn2c(C(=O)c3ccccc3)c(-c3ccccc3)cc2c1 | inconclusive [activator, full curve]
Cn1c(-c2cccc([N+](=O)[O-])c2)cnc1NCc1cccc([N+](=O)[O-])c1 | inconclusive [activator, partial curve, poor fit]
COc1ccc(C2=CC(=O)C[C@H](c3ccc(OC)cc3)C2)cc1 | inconclusive [activator, single point]
COc1cc(NC(=O)COC(=O)c2[nH]c(C)c(C(C)=O)c2C)cc(OC)c1 | inactive

SMILES | Potency
Cc1cccc2cc(C#N)c(NCCNC(=O)NC3CCCCC3)nc12 | inconclusive [activator, single point]
CCCn1c(C(O)c2ccc3c(c2)OCO3)nc2ccccc21 (stereo not given) | inconclusive [activator, single point]
O=C(COC(=O)c1ccccc1Br)Nc1nnc(-c2ccccc2)o1 | inconclusive [activator, partial curve, poor fit]
Cc1cc(-c2cccs2)c2c(n1)sc1c(=O)[nH]c(=O)[nH]c12 | inconclusive [activator, full curve, poor fit]
CCCOC(=O)c1ccc(-c2ccc(C=O)o2)cc1 | inactive
CC[C@@H](C)[C@@H](C(=O)N1CCNCC1)n1cc(CCC(=O)O)nn1 | inconclusive [activator, single point]
O=C1NC[C@H](Cc2ccccc2)N(CC2CCN(CCc3ccc(-c4ccccc4)cc3)CC2)C1=O | inconclusive [activator, full curve, poor fit]
Cc1ccc(NC(=O)COC(=O)c2ccc(-n3nc(C)cc3C)cc2)c(F)c1 | inconclusive [activator, partial curve, poor fit]
COc1ccc(-c2csc(NC(=O)C3COc4ccccc4O3)n2)cc1OC (stereo not given) | inconclusive [activator, single point]
Cc1c(F)cccc1NS(=O)(=O)c1ccc2c(c1)n(C)c(=O)c(=O)n2C | inconclusive [activator, partial curve, poor fit]
COC(=O)N/N=C/c1cn(CC(C)COc2ccccc2)c2ccccc12 (stereo not given) | inconclusive [activator, single point]
CN(C(=O)CSc1nc(-c2ccc(C(C)(C)C)cc2)c(C#N)c(=O)[nH]1)C1CCCCC1 | inconclusive [activator, single point]
CCC(C)NCCCOc1c(C)cc(C)cc1Br (stereo not given) | inconclusive [activator, single point]
C/C(=N\NC(=O)c1ccccc1O)c1c(O)cc(C)oc1=O | inconclusive [activator, single point]
CC(C)(C)C(=O)NC1CCN(S(C)(=O)=O)CC1 | inconclusive [activator, single point]
CC(=O)N/C(=C/c1ccc(Cl)cc1)C(=O)NCCc1c[nH]c2ccccc12 | inconclusive [activator, partial curve, poor fit]
COc1ccc(-c2c(-c3ccsc3)oc3ccc(N4CCOCC4)cc23)cn1 | active: 18.4 µM
COc1ccc(N2CCc3c(C)nc4c(OC)cc(OC)cc4c32)cc1 | inconclusive [activator, single point]
NNC(=O)c1ccc(COc2ccc3c(c2)CCC3)o1 | inconclusive [activator, single point]
Cc1cccc(NS(=O)(=O)c2ccc(OCC(=O)N3CCCC3)cc2)c1 | inactive
O=C(NCc1ccccn1)c1ccc(Cl)c(S(=O)(=O)N2CCCCC2)c1 | inconclusive [activator, partial curve, poor fit]
